Measured values from paper PMC4336329 (PLoS ONE, 2015).
The campaign covered roughly 310,000 compounds. About 14,000 (4.5%) showed an effect of 50% or more. The effect is printed as a negative number. The list shows a part of the results.

Each molecule was assayed against human ether-à-go-go-related gene (hERG) potassium channel (human, UniProt Q12809) (assay: primary screen, population patch clamp on CHO cells stably expressing hERG).
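Also: peak tail current of the secondary pulse compared with the same well before compound.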

human ether-à-go-go-related gene (hERG) potassium channel, sequence (Q12809 whole entry, looked up): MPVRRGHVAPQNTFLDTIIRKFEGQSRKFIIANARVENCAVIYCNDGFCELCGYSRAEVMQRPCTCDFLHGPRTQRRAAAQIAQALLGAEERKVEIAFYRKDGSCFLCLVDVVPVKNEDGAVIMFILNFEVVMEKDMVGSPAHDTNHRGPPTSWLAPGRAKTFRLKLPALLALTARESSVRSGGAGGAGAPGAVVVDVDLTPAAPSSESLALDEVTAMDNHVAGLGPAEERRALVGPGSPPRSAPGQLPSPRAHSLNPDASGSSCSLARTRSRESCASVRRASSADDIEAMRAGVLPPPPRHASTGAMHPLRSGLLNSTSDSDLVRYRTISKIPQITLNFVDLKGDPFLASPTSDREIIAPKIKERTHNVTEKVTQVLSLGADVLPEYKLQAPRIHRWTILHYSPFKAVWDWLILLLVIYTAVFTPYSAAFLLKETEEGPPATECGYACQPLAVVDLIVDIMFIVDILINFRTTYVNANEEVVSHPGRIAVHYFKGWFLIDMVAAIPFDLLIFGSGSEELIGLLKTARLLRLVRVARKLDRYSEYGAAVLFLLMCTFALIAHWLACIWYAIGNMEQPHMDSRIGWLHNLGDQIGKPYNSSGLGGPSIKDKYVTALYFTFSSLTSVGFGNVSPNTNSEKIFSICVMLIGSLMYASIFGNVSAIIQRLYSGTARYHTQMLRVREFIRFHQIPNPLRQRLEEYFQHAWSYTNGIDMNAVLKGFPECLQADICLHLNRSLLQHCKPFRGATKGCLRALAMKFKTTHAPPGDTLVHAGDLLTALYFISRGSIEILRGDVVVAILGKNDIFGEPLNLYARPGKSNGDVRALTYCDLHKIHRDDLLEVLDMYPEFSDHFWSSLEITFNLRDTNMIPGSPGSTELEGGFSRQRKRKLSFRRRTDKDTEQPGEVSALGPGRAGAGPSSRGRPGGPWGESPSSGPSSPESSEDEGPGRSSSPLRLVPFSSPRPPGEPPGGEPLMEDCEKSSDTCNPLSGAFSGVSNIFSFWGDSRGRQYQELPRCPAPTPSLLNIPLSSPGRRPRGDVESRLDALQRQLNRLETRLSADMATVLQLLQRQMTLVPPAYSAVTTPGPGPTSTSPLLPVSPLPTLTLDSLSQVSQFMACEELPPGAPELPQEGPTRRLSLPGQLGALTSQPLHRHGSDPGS

| Compound | hERG current change (%, negative = inhibition) at 10uM [%] |
| --- | --- |
| C/C(=N\NC(=O)C1CC1)c1ccc(C)c(C)c1 | 16.2 |
| Cc1ccc(-n2c(-c3cnccn3)n[nH]c2=S)cc1 | -28.9 |
| CN(CCc1ccccn1)C(=O)c1ccc(OC2CCN(CCc3ccccc3)CC2)cc1 | -58.5 |
| O=C1CC(c2ccco2)CC(O)=C1C=NCCN1CCN(C(=O)Nc2ccc(Cl)cc2)CC1 (stereo not drawn) | -66.4 |
| COc1ccccc1-n1nnnc1SCC(=O)NC(=O)Cc1ccccc1 | -8.32 |
| CC(CC(=O)C1C(C)C=CCC1(C)C)NNC(N)=O (stereo not drawn) | 28.7 |
| O=P(OC1CCCCC1)(OC1CCCCC1)C(O)c1ccccc1 (stereo not drawn) | -12.6 |
| C=CCc1c(C)nc(SCCC)[nH]c1=O | 4.75 |
| COc1ccc(/C=C/C(=O)Nc2cc(S(=O)(=O)N3CCCCC3)ccc2N2CCCCC2)cc1OC | 4.11 |
| O=C(OCc1nnc(-c2ccc([N+](=O)[O-])cc2)o1)C1CCN(C(=O)c2ccc(F)cc2)CC1 | -76 |
| OC1CCC(Nc2ncnc3sccc23)CC1 (stereo not drawn) | 13.2 |
| C1CCc2nc3c(nc2C1)CCCC3 | -10.7 |
| COc1ccc(N2C(=O)CC(SCC(=O)O)C2=O)cc1 (stereo not drawn) | 2.23 |
| COCCn1c(Cc2ccccc2)nnc1SCC(=O)NC1CCCCC1 | 23.8 |
| COCCCN(CC(=O)O)S(=O)(=O)c1cccc(Cl)c1 | 16.3 |
| COc1cc(CC(NC(C)=O)C(=O)NC2CCN(C(=O)C3CC3)CC2)cc(OC)c1 (stereo not drawn) | 21.7 |
| COc1ccc(-c2oc3cc(OC)c(O)c(OC)c3c(=O)c2OC)cc1O | 3.37 |
| COc1ccc(C2CC(=O)c3c(O)cc(O)cc3O2)c(CC=C(C)C)c1OC (stereo not drawn) | 5.41 |
| Cc1onc(-c2ccccc2)c1C(=O)OCC(=O)N1CCN(c2ccccc2)CC1 | -37.5 |
| Cc1ccc(C(=O)Nc2ccc3ccccc3n2)cc1 | -5.04 |
| CN(CC(=O)Nc1cccc(F)c1)C(=O)c1cc(-c2ccccc2)nc2ccccc12 | 19.5 |
| Cc1cccc(C)c1OCC(=O)Nc1ccccc1C(F)(F)F | 8.6 |
| O=C(O)c1ccc(S(=O)(=O)N2CCSCC2)cc1 | 23.3 |

| Compound | hERG current change (%, negative = inhibition) at 10uM [%] |
| --- | --- |
| CCOCCCNC(=O)C1c2ccccc2C(=O)N2CCc3ccccc3C12 (stereo not drawn) | 3.49 |
| O=c1c2ccccc2nnn1CSc1nnc2ccccn12 | -4.97 |
| CC1(C)CC(NC(=O)c2cccc(F)c2)CC(C)(C)N1 | 17.2 |
| CCC(=O)OC1(c2ccccc2)C(C)CN(C)CC1C.Cl (stereo not drawn) | 6.76 |
| Cc1cc(C)n(C(=O)COc2ccccc2[N+](=O)[O-])n1 | 11.8 |
| COC(=O)[C@H](Cc1ccccc1)NC(=O)Nc1ccc(C)cc1 | 18.1 |
| CCN1C(=O)[C@H]2[C@@H](c3ccc(-c4ccc(OC)cc4)cc3)N3CCCC[C@@]3(C(=O)OC)[C@H]2C1=O.O=C(O)C(F)(F)F | -2.68 |
| Cc1cc(C)c(NC(=O)C2CCN(c3cnccn3)CC2)c(C)c1 | 0.706 |
| O=C(O)c1ccccc1N=Cc1c(O)n(-c2nccs2)c(=O)c2ccccc12 | 15.1 |
| COc1ccccc1CNC(c1ccccc1)c1ccccc1 | -2.31 |
| C[n+]1ccc(-c2ccncc2)cc1.[I-] | 18.4 |
| CCCCn1c(NCc2ccccc2O)nc2ccccc21 | 12.8 |
| CCOC(=O)c1ccccc1OCc1cc(/C=N/NC(=O)c2cccnc2)ccc1OC | -18.7 |
| COc1ccc(-c2nc(-c3cccnc3)no2)cc1OC | 7.22 |
| O=C(c1cc(-c2ccccc2)n[nH]1)N1CCN(S(=O)(=O)c2ccccc2)CC1 | -4.84 |
| O=[N+]([O-])c1ccc2c(c1)C=C1CCCCC1(N1CCCCC1)O2 (stereo not drawn) | 1.53 |
| O=C(NC1CCN(Cc2ccccc2)CC1)c1cccc(Br)c1 | -63.8 |
| COc1ccc(C)cc1NC(=O)NNS(=O)(=O)c1ccc(NC(C)=O)cc1 | 24 |
| COc1ccc(CN2CCCC(CNC(=O)c3ccc(F)cc3)C2)cc1OC (stereo not drawn) | -70.6 |
| COC(=O)CSc1nnc(-c2cccnc2)n1-c1cc(OC)cc(OC)c1 | -19.3 |
| O=S(=O)(NCc1ccccc1)c1cccc2nonc12 | -7.98 |
| O=C(CSc1nc(C(F)(F)F)cc(=O)[nH]1)Nc1cccc2ccccc12 | -10 |
| Fc1cc(F)cc(NC(=S)Nc2ccccc2N2CCOCC2)c1 | -31.8 |

| Compound | hERG current change (%, negative = inhibition) at 10uM [%] |
| --- | --- |
| Cc1cccc(-c2nc(N)nc(N)n2)c1 | 8.37 |
| Cc1cc2c(cc1C)CSC(c1ccc3ccccc3c1O)SC2 | 16.8 |
| CCC1CCCCN1CC(C)(C)NS(=O)(=O)c1ccccc1 (stereo not drawn) | -2.74 |
| Cc1cccc2sc(NNC(=O)c3ccc(S(=O)(=O)N4CCc5ccccc5C4)cc3)nc12 | 20.7 |
| O=C1CC(c2ccccc2)n2nc(NC(=O)c3ccccc3)nc2N1 (stereo not drawn) | 8.09 |
| COCC(C)NC(=O)c1nn(Cc2ccccc2)c(=O)c2ccccc12 (stereo not drawn) | -8.34 |
| O=C(O)CCC(=O)N(Cc1ccccc1)Cc1ccccc1 | 11.5 |
| O=C(NCCCN1CCC(Cc2ccccc2)CC1)C1CCC(=O)N1C1CCCC1 (stereo not drawn) | 6.52 |
| CCOC(=O)c1ccc(NC(=O)CSc2ccc(-c3cccnc3)nn2)cc1 | -12.5 |
| Cn1c(/C=N/O)nc2ccccc21 | 10.9 |
| CCONC(=O)Nc1ccccc1 | 24.8 |
| CC(O)CNc1ncnc2cc(-c3ccc(F)cc3)sc12 (stereo not drawn) | -13.8 |
| Cc1cnc(C(=O)OCC(=O)Nc2ncc(Cl)cc2Cl)cn1 | 6.91 |
| Cl.Oc1cccc(Nc2ncnc3c2oc2ccccc23)c1 | 13.2 |
| CCOC(=O)Cc1c(C)nc2cc(-c3ccc(C)cc3)[nH]n2c1=O | 1.36 |
| CCN1CCN(CCCNC(=O)c2cn(CCOC)c(=O)c3c2c2ccccc2n3C)CC1 | 0.801 |
| CCOC(=O)c1sc(N2C(=O)C(O)=C(C(=O)c3ccc(C)o3)C2c2ccc(OC)c(OC)c2)nc1C (stereo not drawn) | 8.86 |
| CCOc1ccccc1N(CC(=O)Nc1ccccc1C(=O)N1CCCC1)S(C)(=O)=O | 20.8 |
| O=C(Cn1cccc1C(=O)c1ccccc1)NCc1ccccc1Cl | 15.5 |
| c1ccc(-c2nc3ccccc3nc2N2CCOCC2)cc1 | -54.7 |
| CCOC(=O)c1ccc2nc(C)c3c(c2c1)OC(C)C3 (stereo not drawn) | -49.2 |
| Cc1ccccc1NC(=O)C(NC1CCCCC1)C(C)C (stereo not drawn) | 7.39 |
| Cc1noc(C)c1COc1ccccc1C(=O)NCCOc1ccccc1F | -3.18 |

| Compound | hERG current change (%, negative = inhibition) at 10uM [%] |
| --- | --- |
| NC(=O)CSc1nnc(NC(=O)c2cccc(S(=O)(=O)N3CCCCC3)c2)s1 | 25.3 |
| Cc1ccccc1CC1(CO)CCCN(Cc2ccccc2Cl)C1 (stereo not drawn) | -25.6 |
| Cc1ccc(-n2nc(C)c3c(C(=O)OCC(=O)N(C)C4CCS(=O)(=O)C4)cc(-c4ccccc4)nc32)cc1 (stereo not drawn) | 12.9 |
| CCCn1c(C(C)Nc2nc(-c3ccc(Cl)c([N+](=O)[O-])c3)cs2)nc2ccccc21 (stereo not drawn) | 8.28 |
| COc1ccc(NC(=O)CSC2=C(C#N)C(c3ccco3)C3=C(CCCC3=O)N2)c(OC)c1 (stereo not drawn) | -33.2 |
| CC(C)NC(=O)c1nc2c(nnn2Cc2cccc(Cl)c2)c(=O)[nH]1 | 15 |
| Cc1cccc(-n2c(O)c(C=NC3CCS(=O)(=O)C3)c3ccccc3c2=O)c1 (stereo not drawn) | -9.19 |
| O=C(NCc1ccccc1Br)C1CCCO1 (stereo not drawn) | 15.1 |
| CN=C1SC(CC(=O)Nc2ccc(C(C)=O)cc2)C(=O)N1C (stereo not drawn) | -13.1 |
| CCOc1ccc(C2C(C(=O)OC)=C(C)N=C3SCCC(=O)N32)cc1OCC (stereo not drawn) | 0.039 |
| O=C(Cc1cccc2ccccc12)N/N=C/c1ccc(OC(=O)/C=C/c2ccco2)cc1 | 8.25 |
| CCOc1ccc(CN(C)CC(=O)Nc2cc(C)c(C)cc2[N+](=O)[O-])cc1.CN(C)C=O | 9.36 |
| CCN1CCN=C1Nc1ccccc1 | 8.49 |
| CN(C)C(CNC(=O)CCNC(=O)c1ccccc1Cl)c1ccco1 (stereo not drawn) | 5.24 |
| COc1ccc(-c2csc(Cc3nnc(N4CCOCC4)n3-c3ccccc3)n2)cc1 | -2.17 |
| COc1ccc2c(c1)C(c1ccccc1)=NNC(c1ccco1)=N2 | -15.7 |
| O=S(=O)(NC1CCCC1)c1ccc(S(=O)(=O)N2CCN(c3ccccc3)CC2)cc1 | -5.74 |
| COc1cccc(NC(=O)C2CC2)c1 | 2.97 |
| COc1cc(N/C(=N/S(=O)(=O)c2ccccc2)c2ccccc2)ncn1 | 6.32 |
| O=C(CNC(=O)c1ccc(Br)o1)Nc1ncccc1O | 6.38 |
| CCC1CCC(N2CCN(c3cccc(OC)c3)CC2)CC1 (stereo not drawn) | -33.7 |
